# Experimental data from PubChem BioAssay AID686979 (National Center for Advancing Translational Sciences (NCATS), 2013).
# About 50,000 (12%) of roughly 420,000 compounds were called active. Inconclusive results, whose numbers are uncertain, are shown with a selection of clear calls. Calls come from the whole dose curve; as a rule, active = well fitted inhibition curve with a large enough effect; inconclusive = small, poorly fitted or top-dose-only effect; inactive = flat fitted curve, though single readings scatter. No potency is given beside an inconclusive call; the fits are too rough.
# Assay: qHTS for Inhibitors of human tyrosyl-DNA phosphodiesterase 1 (TDP1): qHTS in cells in presence of CPT; note: nearly all actives have a fitted effect of over 55% in size
# Conditions: chicken DT40 Tdp1-/-;hTDP1 cells + 20 nM CPT, ATP luminescence, 48 h; activity change, negative = growth inhibition: at 46.2 µM (top of the series)
# How it was run: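 Chicken DT40 Tdp1-/- cells complemented with human TDP1, 400 cells/well, exposed to compounds plus 20 nM camptothecin for at least 48 h at 37 C; viability read as ATP content by CellTiter-Glo luminescence.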
# % is set by controls: 0 for no effect and ±100 for the full control effect; potency is the fitted concentration of half-maximal effect; tags give direction and shape of the fitted curve.
SMILES,"activity change, negative = growth inhibition",Potency
O=C(OCN1C(=O)c2ccccc2C1=O)c1cc(S(=O)(=O)N2CCOCC2)ccc1F,inactive: -3.35%,–
CCOc1cccc(CC(=O)N2CCc3c([nH]c4ccccc34)C2c2ccc(OC)cc2)c1OCC (configuration not stated),–,"inconclusive [inhibitor, single point]"
COc1ccc(C2C(C(=O)Nc3cc(OC)c(OC)c(OC)c3)c3ccccc3C(=O)N2C)cc1 (configuration not stated),–,active: 1.46 µM
CNC(=O)/C(C#N)=C/c1cc(C)n(-c2ccc(N3CCOCC3)cc2)c1C,–,active: 3.26 µM
CC(C)(C)NC(=O)C(c1ccco1)N(C(=O)Cn1nnc(-c2ccc(F)cc2)n1)c1cccc(F)c1 (configuration not stated),–,"inconclusive [inhibitor, single point]"
Cc1cccc(OCCC(=O)OCc2csc(CC(=O)Nc3ccccc3C)n2)c1,inactive: -16.9%,–
CCOC(=O)[C@]12CCC=C1N(Cc1ccccc1)C(=O)[C@H](CC(=O)NCC13CC4CC(CC(C4)C1)C3)C2,–,"inconclusive [inhibitor, single point]"
Cc1onc(NC(=O)NC(=O)c2c(Cl)cccc2Cl)c1Br,inactive: -1.3%,–
Cc1ccccc1CN1C(=O)c2ccccc2S(=O)c2ccc(C(=O)NCc3ccccc3)cc21 (configuration not stated),–,"inconclusive [inhibitor, single point]"
COC(=O)[C@@]1(C)[C@H]2C(=O)N(Cc3ccccc3)C(=O)[C@H]2[C@H]2CN=C(SCc3ccc(C#N)cc3)N21,–,"inconclusive [inhibitor, single point]"
Cc1ccc(NC(=O)c2cccc(S(=O)(=O)NCc3ccccc3)c2)nc1,–,"inconclusive [inhibitor, single point]"
CC(NC(=O)C1CCCN1S(=O)(=O)c1cccc2cccnc12)c1ccccc1 (configuration not stated),–,"inconclusive [inhibitor, single point]"
O=C(COC(=O)c1ccc(O)cc1)Nc1cc(C(F)(F)F)ccc1Cl,inactive: -3.97%,–
CCCOc1cc(C)c(S(=O)(=O)n2ccc(C)n2)cc1C,–,"inconclusive [inhibitor, single point]"
C/C(=N\NC(=O)C(N)=O)c1ccc2c(c1)OCCO2,inactive: 13.6%,–
N=c1ccn(Cc2cccc(F)c2)cc1,–,"inconclusive [inhibitor, single point]"
COCCNC(=O)C1(C)CCCN(Cc2cc(-c3ccccc3)on2)C1 (configuration not stated),–,active: 13 µM
CC1(C)CC(=O)C2=C(C1)Nc1[nH]c(=S)[nH]c(=O)c1C2c1ccccc1 (configuration not stated),inactive: 3.37%,–
O=C(NCc1ccco1)Nc1cccc(-c2ccccc2)c1,–,"inconclusive [inhibitor, partial curve]"
Cc1nn(C)c2c1c(-c1ccccc1)cc(=O)n2Cc1c(F)cccc1Cl,–,"inconclusive [inhibitor, single point]"
O=C(c1cc(-c2ccc(Cl)cc2)on1)N(Cc1ccc(F)cc1)Cc1ccco1,–,"inconclusive [inhibitor, partial curve]"
NC(=O)C1=C[C@@H](c2ccc(C(F)(F)F)cc2)C[C@@H](OCCCCO)O1,inactive: 6.84%,–
COc1cc(C(=O)Nc2ccc(N(C)C)cc2)cc(OC)c1OC,–,active: 20.6 µM
CC(=O)C12CCCCC1CC1C3CC(C)C4(O)CC(=O)CCC4(C)C3CCC12C (configuration not stated),–,"inconclusive [inhibitor, single point]"

SMILES,"activity change, negative = growth inhibition",Potency
O=C1c2oc3ccccc3c(=O)c2C(c2cccc(O)c2)N1Cc1ccc(F)cc1 (configuration not stated),–,"inconclusive [inhibitor, single point]"
CCCC(=O)N(CCN1CCOCC1)c1nc2c(OC)ccc(OC)c2s1,inactive: -9.41%,–
CCOc1ccc(N(CC(=O)Nc2ccc3c(c2)OCO3)S(=O)(=O)c2ccccc2)cc1,–,"inconclusive [inhibitor, partial curve]"
COc1ccccc1Nc1nc(C)nc2c1oc1ccccc12,–,active: 14.6 µM
CC1CN(c2nc3ccccc3nc2SCC(=O)Nc2cccc(C(F)(F)F)c2)CC(C)O1 (configuration not stated),–,active: 14.6 µM
CCn1c(=NC(=O)c2ccc(N3C(=O)CCC3=O)cc2)sc2c(OC)ccc(OC)c21,–,active: 23.1 µM
CCN(CC)c1ccc(NC(=O)CN2C(=O)CC(C)(C)S(=O)(=O)c3ccccc32)c(C)c1,–,active: 14.6 µM
COCCN(Cc1ccc(C)cc1)C(=O)[C@H]1O[C@@H](n2cnc3c(N)ncnc32)[C@H](O)[C@@H]1O,inactive: 19.5%,–
COC(=O)[C@]1(C)N[C@H](CN(C)C(=O)Nc2ccc(C(F)(F)F)cc2)[C@@H]2C(=O)N(C)C(=O)[C@@H]21,inactive: -18.2%,–
O=C(NCC1CCN(Cc2ccc(F)cc2)CC1)Nc1cc(F)ccc1F,inactive: -3.84%,–
COc1ccc(Nc2ccccc2N)cc1,–,"inconclusive [inhibitor, single point]"
N#Cc1c(-c2ccccc2F)cc(C2CC2)nc1SCC(=O)c1cccs1,–,active: 18.4 µM
COc1ccccc1-c1noc(CCC(=O)Nc2cccc(C)c2)n1,–,"inconclusive [inhibitor, single point]"
COc1ccc(N(C(=O)c2ccc(C)cc2)S(=O)(=O)c2ccc(Cl)cc2)cc1,–,"inconclusive [inhibitor, single point]"
Clc1ccccc1-c1cc2nc(NCc3ccco3)ccn2n1,–,"inconclusive [inhibitor, single point]"
Cc1ccccc1S(=O)(=O)NC(=O)C1(C)CCN1C(=O)Cc1cccs1 (configuration not stated),inactive: 0.278%,–
CCOc1ccc(N(Cc2cc3cc(C)ccc3[nH]c2=O)S(=O)(=O)c2ccccc2)cc1,inactive: 1.52%,–
CCn1c(=N)n(CC(=O)c2ccc(OC)cc2)c2ccccc21,–,"inconclusive [inhibitor, single point]"
O=C(COc1ccc(S(=O)(=O)N2CCCC2)cc1Cl)N1CCN(c2ccccc2)CC1,–,"inconclusive [inhibitor, single point]"
CCOC(=O)c1ccccc1NC(=O)CSC(C)C(=O)Nc1cc(C)on1 (configuration not stated),–,"inconclusive [inhibitor, partial curve]"
COc1ccc(CCN2C(=O)c3cccc4c(C(=O)N5CCCCC5)ccc(c34)C2=O)cc1OC,–,active: 16.4 µM
O=C1CN(C(=O)c2ccc(S(=O)(=O)N3CCCC3)cc2)C(c2ccc(F)cc2)c2cc(F)ccc2N1 (configuration not stated),–,"inconclusive [inhibitor, single point]"
COc1ccc(Br)cc1C(=O)Nc1cc(C)cc(C)c1,–,"inconclusive [inhibitor, partial curve]"
C=CCNC(=S)NCC,inactive: -3.83%,–

SMILES,"activity change, negative = growth inhibition",Potency
CCc1cccc(NC(=O)c2sc3nc[nH]c(=O)c3c2C)c1,–,"inconclusive [inhibitor, single point]"
O=C(Nc1ccc(Cl)cc1)c1nc[nH]c1C(=O)NCCCCNC(=O)c1[nH]cnc1C(=O)Nc1ccc(Cl)cc1,–,active: 5.8 µM
O=C(CN1CCCN(Cc2ccc(F)cc2Cl)C1=O)NC1CCCCCCC1,–,"inconclusive [inhibitor, single point]"
COc1cc(C2C(C(=O)Nc3ccc(C)cc3C)=C(C)Nc3nc(SCc4ccccc4)nn32)cc(OC)c1OC (configuration not stated),–,active: 20.6 µM
O=C(NC1CCCCC1)c1sc(=S)n2c1[nH]c(=O)c1ccccc12,–,active: 16.4 µM
CN1CCN(c2ccc(NC(=O)c3ccc4c(c3)[nH]c(=O)n4Cc3ccc(F)cc3)cc2)CC1,–,"inconclusive [inhibitor, single point]"
COc1cc(C(=O)Nc2ccc(-n3cnnn3)c(C)c2)cc(OC)c1OC,inactive: -28.2%,–
Cc1cccc(/C=C2/SC(=O)N(Cc3ccccc3Cl)C2=O)n1,inconclusive: -30.2% [inhibitor],–
O=C(O)CCCNS(=O)(=O)c1cccc2nsnc12,inactive: -1.89%,–
CCOc1cc(CNCCc2c[nH]c3ccccc23)cc(Cl)c1OCC(N)=O,–,"inconclusive [inhibitor, single point]"
CCC1CN(C(=O)N2CCC(C(=O)NCc3ccc(OC)cc3OC)CC2)c2ccccc2O1 (configuration not stated),–,"inconclusive [inhibitor, single point]"
COc1cc(/C=C(\C#N)C(=O)Nc2ccccc2)ccc1OCCN1CCOCC1,inactive: -0.314%,–
O=C(c1ccccc1)N1CCN(S(=O)(=O)N2CCCCCC2)CC1,inconclusive: -19.4% [inhibitor],–
CCOC(=O)c1ccc(-c2cc(C)no2)[nH]1,–,"inconclusive [inhibitor, single point]"
CC(=O)N1c2ccc(S(=O)(=O)NCCC(=O)Nc3ccc(Cl)cc3)cc2CC1C (configuration not stated),–,active: 18.4 µM
O=C(NCc1ccc(Cl)cc1Cl)C1CCN(S(=O)(=O)c2ccc3c(c2)OCCCO3)CC1,–,active: 20.6 µM
Cc1ccc2oc3c(c(=O)c2c1)C(c1cccc(O)c1)N(CCCN1CCOCC1)C3=O (configuration not stated),–,"inconclusive [inhibitor, single point]"
CCCn1c(=O)n(C)c(=O)c2c(SCc3cc(C(C)=O)ccc3OCC)nc(C3CC3)nc21,–,active: 20.6 µM
Cc1cccc(/C(N)=N/OC(=O)CCc2ccccc2)c1,inactive: -2.5%,–
Cc1ccc(CNC(=O)c2cnn3c(C)c(Cc4c(F)cccc4Cl)c(C)nc23)cc1,–,active: 14.6 µM
O=Cc1ccccc1OS(=O)(=O)c1ccccc1,–,"inconclusive [inhibitor, single point]"
CN(C)S(=O)(=O)c1cc(NC(=O)CN2CCCc3ccccc32)ccc1Cl,–,"inconclusive [inhibitor, single point]"
Cc1ccccc1-n1nnnc1Sc1nnnn1-c1ccccc1,–,active: 11.6 µM
Cc1ccc(OCCCCCCN2CCNCC2)cc1,–,active: 18.4 µM
